# From PubChem BioAssay AID463173 (ICCB-Longwood Screening Facility, Harvard Medical School, 2010)
# Screen size: about 52,000 compounds; about 4,300 (8.3%) were called active. Rule as the data show it: active = survival mostly below about 52% (no sharp cut-off); inactive = mostly above about 56%. The list shows a part of the results.
# System: DeltatarO mutant
# Assay: S. aureus survival, RN4220 and DeltatarO strains – OD600, teichoic acid synthesis inhibitors, primary screen (AID 463173)
# Details: S. aureus RN4220 wild type/DeltatarO growth, OD600, 18 h, hits give low values, screened at 18.75 µg/mL (by protocol)
row,SMILES,survival
1,Cc1ccc(C)c(Cn2c(=O)n(-c3ccccc3)c(=O)c3c4c(sc32)CCCC4)c1,inactive: 120%
2,CCN(CC)C(=S)NC(=O)C12CC3CC(CC(C3)C1)C2,inactive: 87%
3,CCC(=O)N1c2ncnn2C2(CCCCC2)[C@@H]2CCCC[C@@H]21,inactive: 111%
4,CCn1nc(C)c2c(-c3ccccc3)cc(=O)n(C(C)C(=O)NCCc3ccc(Cl)cc3)c21 (stereo unspecified),inactive: 87%
5,O=S(=O)(c1ccc(-c2cnc(C3CC3)o2)cc1)N1CCN(c2ccc(F)cc2)CC1,inactive: 86%
6,CCOc1ccc(NC(=O)CCCn2c(C)c3cnn(-c4ccccc4)c(=O)c3c2C)cc1,inactive: 98%
7,O=C(NC(NC1CCS(=O)(=O)C1)C(=O)c1ccc(Cl)cc1)c1ccco1 (stereo unspecified),inactive: 84%
8,CCOc1cccc(CNCCCSc2nnnn2C)c1,inactive: 62%
9,COc1ccc(OC)c(NC(=O)CSC2=Nc3ccccc3C3=NC(CC(=O)NCCc4ccccc4)C(=O)N23)c1 (stereo unspecified),inactive: 77%
10,O=C(c1ccc2c(c1)N(Cc1cccc(Cl)c1)C(=O)c1ccccc1S2=O)N1CCC(Cc2ccccc2)CC1 (stereo unspecified),inactive: 124%
11,O=C(c1cccc([N+](=O)[O-])c1)N1CCN(c2ccc(Nc3ccccc3)nn2)CC1,inactive: 88%
12,COc1nnc(-c2ccc(N3CCCCC3)c(NC(=O)c3ccc(C)cc3)c2)c2ccccc12,active: 26%
13,CCOC(=O)c1c(S(=O)(=O)N2CCC(C(=O)Nc3ccc(C)c(Cl)c3)CC2)c(C)n(C)c1C,inactive: 83%
14,COc1ccccc1N1CCN(C(=O)C2CCN(S(=O)(=O)c3cn(C)cn3)CC2)CC1,active: 46%
15,COc1cccc(-c2cn3c(n2)sc2cc(C(=O)NC4CCCCC4)ccc23)c1,inactive: 68%
16,CCN(CCCNC(=O)c1cc2c(=O)n(C)c3ccccc3c2s1)c1ccccc1,inactive: 57%
17,CCc1ccccc1Nc1nn2c(=O)c3ccc(C(=O)NC(C)C)cc3nc2s1,inactive: 75%
18,C#CCn1c(O)c(N=NC(=O)Cn2nnc(-c3ccccc3)n2)c2cc(Br)ccc21,inactive: 99%
19,CC(=O)Nc1ccc2nc(SCc3ccccc3C#N)sc2c1,inactive: 74%

row,SMILES,survival
1,O=C(Cn1c(=O)n(Cc2ccco2)c(=O)c2oc3ccccc3c21)Nc1ccccc1,inactive: 67%
2,COc1ccc(N2Cc3ccccc3C2=O)cc1,inactive: 95%
3,COc1cccc(NC(=O)C2CCC(CNS(=O)(=O)c3csc(C(N)=O)c3)CC2)c1 (stereo unspecified),inactive: 113%
4,CC(=O)c1ccc(NC(=O)CSc2nc(=O)n(Cc3ccccn3)c3c2CCC3)cc1,inactive: 67%
5,O=C(O)C(Cc1c[nH]c2ccccc12)Nc1ncnc2c1oc1ccccc12 (stereo unspecified),inactive: 76%
6,CCOCCCNC(=O)c1ccc2c(=O)n(CCc3ccccc3)c(=O)[nH]c2c1,inactive: 74%
7,CCc1ccc2oc(-c3cc(NC(=O)c4cc(OC)c(OC)c(OC)c4)ccc3O)nc2c1,inactive: 73%
8,COc1cccc(N2CCN(C(=O)c3cnn(-c4ccccc4Cl)c3C3CCN(C(=O)OC(C)(C)C)CC3)CC2)c1,inactive: 112%
9,CCC(C)NC(=O)c1cc2n(n1)CCCN(Cc1ccc(C)cc1)C2=O (stereo unspecified),inactive: 74%
10,Cc1ccc(S(=O)(=O)C(CNC(=O)C(=O)NCCc2ccc(Cl)cc2)c2ccco2)cc1 (stereo unspecified),inactive: 128%
11,Cc1ccc(N2CCN(C(=O)c3cccn4c(=O)c5ccc(Cl)cc5nc34)CC2C)cc1 (stereo unspecified),inactive: 83%
12,CC(=O)Nc1ccc(N=NN2CCCCC2)cc1,inactive: 104%
13,O=C1CCC(NC(=O)OCc2ccccc2)(C(=O)O)O1 (stereo unspecified),inactive: 83%
14,Cc1ccc(NS(=O)(=O)c2ccc3oc(=O)c4ncn(C)c4c3c2)cc1C,inactive: 74%
15,COc1ccc(CCNc2ncnc3c2cnn3-c2ccc(C)c(Cl)c2)cc1,inactive: 76%
16,O=C(CCC1N=C2c3ccccc3N=C(SCc3ccc(Cl)cc3)N2C1=O)NCc1cccs1 (stereo unspecified),active: 47%
17,COc1ccc(OCC(O)Cn2c(=N)n(CCN3CCCCC3)c3ccccc32)cc1 (stereo unspecified),inactive: 46%
18,CCC(=O)N1CCc2cc(S(=O)(=O)NC(CC(C)C)C(=O)Nc3cccc(C)c3C)ccc21 (stereo unspecified),inactive: 73%
19,COc1ccccc1C(=O)n1nc(-c2ccccc2)nc1NCc1ccc(Cl)cc1,inactive: 56%

row,SMILES,survival
1,O=C(CCc1ccccc1)NC1CC(=O)N(c2cccc(F)c2)C1 (stereo unspecified),inactive: 74%
2,CN(C)c1ccc(CNC(=O)CN2C(=O)C3CCCCN3c3ccc(C(=O)N4CCCC4)cc32)cc1 (stereo unspecified),inactive: 82%
3,Cc1cc(NS(=O)(=O)c2ccc(NC(=O)COc3ccccc3Br)cc2)no1,inactive: 67%
4,Cc1cc(C)cc(NC(=O)CSc2ccc(-c3cccs3)nn2)c1,inactive: 73%
5,CSc1ccccc1S(=O)(=O)C(C)(C)C,inactive: 75%
6,Cc1ccc(Nc2nc(N)nc(CSc3nc4ccccc4s3)n2)cc1,active: 25%
7,COc1ccc(C(CNC(=O)c2oc3cc(C)c(C)cc3c2C)N2CCCCC2)cc1 (stereo unspecified),inactive: 98%
8,CCn1cc(C(=O)N2CCN(c3ccccc3)CC2)c(=O)c2cc(S(=O)(=O)N(C)C)ccc21,inactive: 99%
9,O=C(Cc1ccc(F)cc1)NCCc1csc2nc(-c3ccccc3F)nn12,inactive: 83%
10,COc1ccc(CCNS(=O)(=O)c2c(C)nc3sccn3c2=O)cc1OC,inactive: 64%
11,CC(CCc1ccccc1)NC(=O)c1ccco1 (stereo unspecified),inactive: 77%
12,CCOc1ccc(NC(=O)Cn2nnc(-c3nc(-c4ccncc4)no3)c2N)cc1,inactive: 88%
13,CCc1ccc(NCc2cc3cc4c(cc3n(CC(=O)Nc3ccccc3C)c2=O)OCCO4)cc1,inactive: 80%
14,Cc1ccccc1NC(=O)/C(C#N)=C/c1ccc(Cl)cc1Cl,active: 32%
15,Cc1nn2c(C)c(C(=O)NCCc3ccccc3)cnc2c1-c1ccccc1,inactive: 81%
16,CCOC(=O)c1ccc(NC(=O)CC(=O)Nc2ccc3nc4n(c(=O)c3c2)CCCCC4)cc1,inactive: 104%
17,O=C(NCc1ccc(F)cc1)C(=O)NCC(c1ccc2c(c1)OCO2)N1CCOCC1 (stereo unspecified),inactive: 69%
18,COc1ccc(NC(=O)C2CCCN(S(=O)(=O)c3c(C)[nH]c(=O)[nH]c3=O)C2)c(OC)c1 (stereo unspecified),inactive: 141%
